Reference: PubChem BioAssay AID1347417 (National Center for Advancing Translational Sciences (NCATS), 2020)
Screen size: about 120,000 compounds; about 5,300 (4.4%) were called active. This list was built around the results that the source calls inconclusive (neither active nor inactive); the mix of calls is not that of the screen. Calls come from the whole dose curve; as a rule, active = well fitted inhibition curve with a large enough effect; inconclusive = small, poorly fitted or top-dose-only effect; inactive = no such curve, though single readings can be large or run the other way. Where the call is inconclusive, the potency comes from a doubtful curve fit.
Potency is the fitted concentration of half-maximal effect; tags give direction and shape of the fitted curve.

Assay: qHTS Primary assay for Inhibitors of Plasmodium falciparum Dd2 growth in vitro; note: nearly all actives have a fitted effect of over 65% in size
Conditions: P. falciparum Dd2 growth, SYBR Green, 72 h; series mostly up to 28.9 µM
How it was run: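 Infected erythrocytes (Dd2, 0.3% parasitemia, 2.5% hematocrit final) are added to compound in RPMI-1640/Albumax II medium, grown 72 h at 37C in low oxygen, then lysed with saponin/Triton-X containing SYBR Green and read by fluorescence.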
For `Cc1ccc(S(=O)(=O)N2CCCC(Cn3c(C4CC4)nc4cccnc43)C2)cc1` (stereo unspecified), the Potency was inconclusive: 6.31 µM [inhibitor, partial curve, poor fit].
In the case of `CCC(c1cccs1)N1C(=O)[C@H]2CN(S(=O)(=O)c3ccc(C)c(C)c3)C[C@H]2C1=O` (stereo partly specified), the Potency is reported as inconclusive: 10 µM [inhibitor, single point].
In the case of `COc1ccc(-c2[nH]nc3ncc(-c4ccc([S+](C)(=O)[O-])cc4)nc23)cc1F`, the Potency is reported as inconclusive: 1.41 µM [inhibitor, partial curve, poor fit].
For `COCCN1CCCCCC(O)c2cc(C(=O)NCc3ccc(N4CCC(C)CC4)cc3)ccc21` (stereo unspecified), the Potency was inconclusive: 6.31 µM [inhibitor, single point].
In the case of `CC(C)CNC(=O)C1c2ccccc2C(=O)N(Cc2ccco2)C12CCCC2` (stereo unspecified), the Potency is reported as inconclusive: 20 µM [inhibitor, partial curve, poor fit].
With `C=Cc1ccc(Cn2c(C)c(CNCc3cccc(Br)c3)c(C(=O)O)c2C)cc1` the Potency was “inactive”.
With `CN(C)c1ccc(NC(=O)Cn2nc3n(c2=O)CCCCC3)cc1` the Potency was “inactive”.
In the case of `COC(=O)[C@]1(C)N[C@H](c2cccnc2N2CCOCC2)[C@@H]2C(=O)N(C)C(=O)[C@@H]21`, the Potency is reported as “inactive”.
With `CC(C)(C)c1cc(C[C@@H]2C[C@H](NC3CCOCC3)C2(C)C)no1` the Potency was “inactive”.
In the case of `COc1ccc(OC)c(CN2CCCn3nc(C)c(-c4ccccc4C(C)C)c32)c1`, the Potency is reported as inconclusive: 1.26 µM [inhibitor, partial curve, poor fit].
With `O=C(CCS(=O)(=O)c1cc(Br)cc2c1N(C(=O)C1CC1)CC2)Nc1ccc(Br)cc1F` the Potency was inconclusive: 1.58 µM [inhibitor, full curve].
In the case of `COC(=O)[C@@H]1Cc2c([nH]c3ccccc23)[C@H]2C[C@@H](NCCNC(C)=O)C[C@@H](c3ccc(-c4ccccc4)cc3)N21`, the Potency is reported as inconclusive: 11.2 µM [inhibitor, partial curve, poor fit].
For `CC(C)c1nnc(C2CN(C(=O)Cc3ccccc3Cl)CC23CCOCC3)o1` (stereo unspecified), the Potency was “inactive”.
For `CC(C)c1ccc(NC(=O)CN(C)S(=O)(=O)c2ccc3c(c2)c(=O)n(C)c(=O)n3C)cc1`, the Potency was inconclusive: 11.2 µM [inhibitor, single point].
In the case of `Cc1nc(CCCNC(=O)[C@H]2CCC[C@@H](O)C2)sc1C`, the Potency is reported as “inactive”.
With `CCn1c(=O)n(CC)c2cc(N3CCCCC3)c(NC(=O)Nc3ccccc3Cl)cc21` the Potency was active: 10 µM.
In the case of `COc1ccc2[nH]c3c(c2c1)CCNC31CCN(C(=O)Cn2c(=O)oc3ccccc32)CC1`, the Potency is reported as inconclusive: 2.82 µM [inhibitor, full curve, poor fit].
In the case of `CN1CCCCCC(O)c2cc(C(=O)NCCc3c[nH]c4ccccc34)ccc21` (stereo unspecified), the Potency is reported as active: 12.6 µM.
With `COc1ccc(-c2noc([C@@H]3C[C@H](NS(=O)(=O)c4ccc5ccccc5c4)CN3C)n2)cc1` the Potency was inconclusive: 17.8 µM [inhibitor, single point].
With `CC1(C)[C@H](Cc2cc(CC3CCCCC3)on2)C[C@@H]1NC(=O)c1ccccc1` the Potency was inconclusive: 12.6 µM [inhibitor, single point].
In the case of `CN1CC(=O)N(c2ccccc2F)Cc2c(NCC(C)(C)C)ncnc21`, the Potency is reported as “inactive”.
With `Cc1ccc(C)c(-c2cc3c(=O)n(CCNC(=O)c4cccc(F)c4)ccn3n2)c1` the Potency was inconclusive: 0.282 µM [inhibitor, full curve].
In the case of `COc1ccc2c(CNCCc3cccs3)c(C(=O)O)n(Cc3ccccc3)c2c1`, the Potency is reported as “inactive”.
With `CCCS(=O)(=O)c1c(Nc2ccccc2C)sc(C(=O)c2ccccc2)c1N` the Potency was inconclusive: 10 µM [inhibitor, single point].
For `Oc1ccccc1CN1CCOC[C@H]1c1ncc(-c2ccccc2)[nH]1`, the Potency was “inactive”.
With `CN(C)C(C(=O)N1CCN(c2ncccc2C#N)CC1)c1cccc(F)c1` (stereo unspecified) the Potency was “inactive”.
For `COc1ccc(NC(=O)[C@@H]2C[C@@H](c3ccc(F)cc3)N(CCOc3ccccc3)C2)cn1`, the Potency was inconclusive: 11.2 µM [inhibitor, partial curve, poor fit].
For `COc1ccccc1CN1CC[C@@H]2OCC(=O)N(Cc3c[nH]c4ccccc34)[C@H]2CC1`, the Potency was active: 4.47 µM.
With `CCc1ccccc1N(C)C(=O)Cn1cnc2sc(C)c(S(=O)(=O)N3CCN(c4ncccn4)CC3)c2c1=O` the Potency was inconclusive: 17.8 µM [inhibitor, single point].
For `Cc1nn(-c2cccc(Br)c2)c(C)c1[C@@H]1C=C[C@@H](NS(=O)(=O)c2ccccc2)C1`, the Potency was inconclusive: 2.51 µM [inhibitor, full curve].
In the case of `CCOC(=O)c1cccc(Nc2c3c(nc4ccccc24)CCC3)c1`, the Potency is reported as active: 10 µM.
In the case of `Cc1cccc(NC(=O)c2c(NC(=O)C(F)(F)F)sc3c2CCCCC3)c1`, the Potency is reported as active: 4.47 µM.
In the case of `O=C1CC(c2ccccc2)Cc2[nH]c(=O)c(C(=O)Nc3cccc(F)c3)cc21` (stereo unspecified), the Potency is reported as inconclusive: 17.8 µM [inhibitor, single point].
For `COC(=O)c1ccc(CN2C(=O)[C@@H]3C[C@@H](O)CN3C3(CN(C4CCN(C(C)=O)CC4)C3)C2=O)cc1`, the Potency was “inactive”.
For `CCc1ccc(CNCc2c(C(=O)O)n(Cc3cccc(F)c3)c3cc(OC)ccc23)cc1`, the Potency was inconclusive: 17.8 µM [inhibitor, single point].
With `Cc1ccc(C(=O)N2CCC3(CC2)CC(N(Cc2ccccc2)C2CC2)CCO3)cc1F` (stereo unspecified) the Potency was inconclusive: 6.31 µM [inhibitor, partial curve, poor fit].
In the case of `COc1ccc(CN2CCc3nc(N(C)C)[nH]c(=O)c3CC2)c(Cl)c1OC`, the Potency is reported as inconclusive: 1.26 µM [inhibitor, single point].
With `CCc1n[nH]c(CC2CCN(C(=O)COc3ccc(F)cc3)CC2)n1` the Potency was inconclusive: 7.94 µM [inhibitor, single point].
With `CCn1nc(CC(C)C)cc1C(=O)N(C)Cc1cccc(-n2cccn2)c1` the Potency was “inactive”.
For `c1ccc(CNC[C@H]2Cn3c(-c4ccc5c(c4)OCCO5)cnc3CO2)cc1`, the Potency was active: 11.2 µM.
For `CC(C)c1noc(-c2cccn3c(CNC(=O)CCC4CCCC4)nnc23)n1`, the Potency was “inactive”.
